Experimental data taken from a collection of fitness landscapes (doi:10.1016/j.celrep.2020.107928).
In all, about 81,000 sequences were measured (“one-hybrid fitness for binding NBS DNA”: median about -0.1, highest 2% from about 0.36 on). The list shows a part of the results.

B1: Caulobacter ParB omega fusion; a variant is named by its letters at X, in order, B8GW30 (parent)
chain: MESVVVGEPGMSEGRRGLGRGLSALLGEVDAAPAQAPGEQLGGSREAPIEILQRNPDQPRRTFREEDLEDLSNSIREKGVLQPILVRPSPDTAGEYQIVAGERAWRAAQRAGLKTVPIMVRELDDLAVLEIGIIENVQRADLNVLEEALSYKVLMEKFERTQENIAQTIGKSXSHVANXMRLLXLPDEVQSYLVSGELTAXHARAIAAAADPVALAKQIIEGGLSVRETEALARKAPNLSAGKSKGGRPPRVKDTDTQALESDLSSVLGLDVSIDHRGSTGTLTITYATLEQLDDLCNRLTRGI

Variants of: B1
Assay: one-hybrid fitness for binding NBS DNA (the Noc-binding site; scaled: cognate 1, non-cognate 0); higher = stronger binding
Conditions: with NBS DNA site
How it was run: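 Values were rescaled so that cognate is 1 and non-cognate is 0. Each is a fitness, the log change in a variant's read ratio to wild type from Illumina reads of plasmids before and after selection, with three replicate libraries pooled and variants under 10 reads dropped. Selection of the Caulobacter ParB libraries, four specificity codons randomised, used E. coli USO with a HIS3 reporter, site 19 bp from the promoter, on M9-minus-histidine with 0.1 mM IPTG and 5 mM 3-AT for 48 hours at 37°C.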

| Variant | one-hybrid fitness for binding NBS DNA |
| --- | --- |
| RMAM | ≤ 0.2 |
| HINR | ≤ 0.2 |
| NFDD | ≤ 0.2 |
| AFVW | ≤ 0.2 |
| VWGV | ≤ 0.2 |
| NHPQ | ≤ 0.2 |
| QATA | ≤ 0.2 |
| QGNL | ≤ 0.2 |
| AKDS | ≤ 0.2 |
| LFKG | ≤ 0.2 |
| WDTK | ≤ 0.2 |
| QGNQ | ≤ 0.2 |
| RTTV | ≤ 0.2 |
| TQLT | ≤ 0.2 |
| QIIR | ≤ 0.2 |
| QPDR | ≤ 0.2 |
| KTGC | ≤ 0.2 |
| MVVQ | ≤ 0.2 |
| MCLT | ≤ 0.2 |
| WRYF | ≤ 0.2 |
| AQLA | ≤ 0.2 |
| PHSK | ≤ 0.2 |
| QPTR | ≤ 0.2 |
| ATII | ≤ 0.2 |
| REAE | ≤ 0.2 |

| Variant | one-hybrid fitness for binding NBS DNA |
| --- | --- |
| RQLA | ≤ 0.2 |
| HVYS | ≤ 0.2 |
| PMVG | ≤ 0.2 |
| FKTS | ≤ 0.2 |
| VCTT | ≤ 0.2 |
| NCHR | ≤ 0.2 |
| AMPQ | ≤ 0.2 |
| AHRY | ≤ 0.2 |
| LIAD | ≤ 0.2 |
| WRAT | ≤ 0.2 |
| QKYY | ≤ 0.2 |
| KWTY | ≤ 0.2 |
| MPVG | ≤ 0.2 |
| DLKV | ≤ 0.2 |
| NPSA | ≤ 0.2 |
| EEDN | ≤ 0.2 |
| TYAE | ≤ 0.2 |
| QLDG | ≤ 0.2 |
| NRVA | ≤ 0.2 |
| CAID | ≤ 0.2 |
| FSDR | ≤ 0.2 |
| STPL | ≤ 0.2 |
| CVYY | ≤ 0.2 |
| DPPF | ≤ 0.2 |
| RGSK | ≤ 0.2 |

| Variant | one-hybrid fitness for binding NBS DNA |
| --- | --- |
| QSER | 0.285 |
| QACK | ≤ 0.2 |
| HINS | ≤ 0.2 |
| PRAM | ≤ 0.2 |
| LRVS | ≤ 0.2 |
| CSVN | ≤ 0.2 |
| LVGR | ≤ 0.2 |
| TSGT | ≤ 0.2 |
| VPES | ≤ 0.2 |
| AGGC | ≤ 0.2 |
| FHEF | ≤ 0.2 |
| PTAY | ≤ 0.2 |
| SRTV | ≤ 0.2 |
| KHQG | ≤ 0.2 |
| DWHD | ≤ 0.2 |
| LTQC | ≤ 0.2 |
| QEAL | ≤ 0.2 |
| EEAR | ≤ 0.2 |
| YFAR | ≤ 0.2 |
| KMHR | ≤ 0.2 |
| PLLL | ≤ 0.2 |
| MMKG | ≤ 0.2 |
| LCTD | ≤ 0.2 |
| GDGA | ≤ 0.2 |
| KQER | ≤ 0.2 |

| Variant | one-hybrid fitness for binding NBS DNA |
| --- | --- |
| PAQR | ≤ 0.2 |
| CLRL | ≤ 0.2 |
| NPSV | ≤ 0.2 |
| QSKN | 0.359 |
| LKDP | ≤ 0.2 |
| DDYL | ≤ 0.2 |
| SQWT | ≤ 0.2 |
| QLPL | ≤ 0.2 |
| NMGP | ≤ 0.2 |
| ATVC | ≤ 0.2 |
| TQCT | ≤ 0.2 |
| SEAY | ≤ 0.2 |
| CACR | ≤ 0.2 |
| RDWS | ≤ 0.2 |
| TRKC | ≤ 0.2 |
| LTSL | ≤ 0.2 |
| PLNL | ≤ 0.2 |
| PSEN | ≤ 0.2 |
| RQYT | 0.353 |
| HSAS | ≤ 0.2 |
| HAER | ≤ 0.2 |
| KVGT | ≤ 0.2 |
| VDCY | ≤ 0.2 |
| GYSD | ≤ 0.2 |
| WLIM | ≤ 0.2 |

| Variant | one-hybrid fitness for binding NBS DNA |
| --- | --- |
| TGHY | ≤ 0.2 |
| YLKI | ≤ 0.2 |
| GALW | ≤ 0.2 |
| EYSA | ≤ 0.2 |
| DATM | ≤ 0.2 |
| EPKR | ≤ 0.2 |
| KQKV | ≤ 0.2 |
| KRDS | 0.28 |
| KLLG | ≤ 0.2 |
| IFGG | ≤ 0.2 |
| KSLI | ≤ 0.2 |
| HTRS | ≤ 0.2 |
| PVTR | ≤ 0.2 |
| LSCV | ≤ 0.2 |
| VSPN | ≤ 0.2 |
| NNEC | ≤ 0.2 |
| HTER | ≤ 0.2 |
| KLRF | ≤ 0.2 |
| KVIG | ≤ 0.2 |
| CFVS | ≤ 0.2 |
| PIQM | ≤ 0.2 |
| EGPK | ≤ 0.2 |
| CMSC | ≤ 0.2 |
| TSNL | ≤ 0.2 |
| IPSV | ≤ 0.2 |

| Variant | one-hybrid fitness for binding NBS DNA |
| --- | --- |
| MLYP | ≤ 0.2 |
| QYLW | ≤ 0.2 |
| VTYY | ≤ 0.2 |
| WFES | ≤ 0.2 |
| VYDY | ≤ 0.2 |
| LTQF | ≤ 0.2 |
| LWAT | ≤ 0.2 |
| RVDA | ≤ 0.2 |
| PYCC | ≤ 0.2 |
| RQKK | 0.237 |
| VQQS | ≤ 0.2 |
| GARM | ≤ 0.2 |
| SAIS | ≤ 0.2 |
| ASWL | ≤ 0.2 |
| WFNN | ≤ 0.2 |
| DTAC | ≤ 0.2 |
| RFHK | ≤ 0.2 |
| ELNR | ≤ 0.2 |
| RVAY | ≤ 0.2 |
| LVTY | ≤ 0.2 |
| DYQR | ≤ 0.2 |
| MRLA | ≤ 0.2 |
| MFCN | ≤ 0.2 |
| VTGC | ≤ 0.2 |
| HMGG | ≤ 0.2 |

| Variant | one-hybrid fitness for binding NBS DNA |
| --- | --- |
| QWNC | ≤ 0.2 |
| RNAS | 0.221 |
| CGAC | ≤ 0.2 |
| PESR | ≤ 0.2 |
| AEKL | ≤ 0.2 |
| NASG | ≤ 0.2 |
| HNHR | ≤ 0.2 |
| ERIC | ≤ 0.2 |
| TEHS | ≤ 0.2 |
| TGIV | ≤ 0.2 |
| NTCV | ≤ 0.2 |
| RMFT | 0.261 |
| ANTY | ≤ 0.2 |
| TVAQ | ≤ 0.2 |
| SMPG | ≤ 0.2 |
| MQST | ≤ 0.2 |
| GGGM | ≤ 0.2 |
| VRNK | ≤ 0.2 |
| AHPF | ≤ 0.2 |
| DTSP | ≤ 0.2 |
| HEVT | ≤ 0.2 |
| CYGA | ≤ 0.2 |
| DAGS | ≤ 0.2 |
| AGEI | ≤ 0.2 |
| RHKG | ≤ 0.2 |

| Variant | one-hybrid fitness for binding NBS DNA |
| --- | --- |
| HCLT | ≤ 0.2 |
| RMQP | ≤ 0.2 |
| PFPT | ≤ 0.2 |
| KEVP | ≤ 0.2 |
| TTMV | ≤ 0.2 |
| IAYS | ≤ 0.2 |
| WALA | ≤ 0.2 |
| PLKS | ≤ 0.2 |
| AVNV | ≤ 0.2 |
| QKKT | 0.774 |
| DSSL | ≤ 0.2 |
| VCIS | ≤ 0.2 |
| LMCA | ≤ 0.2 |
| SKAI | ≤ 0.2 |
| LKEG | ≤ 0.2 |
| SQHT | ≤ 0.2 |
| AVQV | ≤ 0.2 |
| LTDV | ≤ 0.2 |
| KQKS | ≤ 0.2 |
| QVSI | ≤ 0.2 |
